The results in this text go back to the RNAGym collection of RNA variant scans (doi:10.1093/nar/gkz1192).

Read counts are not given, so values of variants with three or more changes are uncertain.

B1: CPEB3 Ribozyme (parent)
chain: UAACAGGGGGCCACAGCAGAAGCGUUCACGUCGCAGCCCCUGUCAGAUUCUGGUGAAUCUGCGAAUUCUGCUGUAUAUCUC

Variants of B1 are the subject of this data set. Briefly: self-cleavage, relative activity (ratio to wild type); higher = more cleavage; in vitro, sequencing. A digest of the protocol: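 Relative activity compares each variant's cleaved/total read fraction with that of the unmutated ribozyme. To get these fractions, barcoded CPEB3 ribozyme libraries from rounds of error-prone PCR were transcribed with T7 RNA polymerase for 5 hours at 37°C and then given 15 min of DNase I treatment before EDTA was added. The RNAs were reverse transcribed with template switching and sequenced on Illumina, and DNA sequencing linked barcodes to variants. A minimum of 5 reads applied, and three batches were averaged.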
As for G24C U41C A45C G52C C71U, the self-cleavage stood at 0.11. To G24A U74A U80C belongs 0.38; to A21G U54C G63A, 0.49. Turning to C23U A47G A56C U67A U69A U78A U80A, the self-cleavage turned out to be 0.09. To U25A C40A U51C A56G belongs 0.15; to G24A U25C U43A U69C, 0.07; to U25A U41C U43A A47G U48A U66A, 0.17.

As to A21G U49C U69A, the self-cleavage worked out at 0.15. To C23U C29U U67C belongs 0.11. To A21G U43C A64G belongs 0.16; to G24A U54C U72A, 0.06. As for A21U U26C U72A G73C, the figure is 0.06; as for G22U U31C A35U A45G, 0.2.

Take G24U U58C U66C U67G: the self-cleavage amounted to 0.16. As for C23U U51C U69C, the figure is 0.42; as for C23A U26C C27U U41A A56G, 0.34; as for U25A A35U U54C U78C, 0.09.

Take G24A U43C A56G A75G: the self-cleavage is 0.09.

Regarding C23U G24A U25C C27A G63U, the self-cleavage came out at 0.27. For A21U U41A C50G A57G U60A, the self-cleavage stood at 0.19. On to C23G A35G A57U U72C C79A, for which the self-cleavage came out at 0.27. Turning to G24A U54C A75G, the self-cleavage is 0.09.

Consider G22C U43A C59U U76C, for which the self-cleavage turned out to be 0.08.

Take G24A U26C G61C: the self-cleavage worked out at 0.35.

Take C23U C40U U41A G61A: the self-cleavage was determined as 0.19.

Turning to G24U U54A U72A A77G, the self-cleavage stood at 0.16.

As for C23U G42U G52A U76A, the self-cleavage turned out to be 0.5. As for G24A A28U U72C, the figure is 0.07; as for G24U U43G U69C U74C, 0.07; as for A21U U26A A35C A65G U67C, 0.32. As to A21U C29U A56U, the self-cleavage was determined as 0.16. As for G22C U54C U69C, the figure is 0.15; as for G24A A45U U54C, 0.15. To C23A A56G C71A U80C belongs 0.11; to A21U U26C U31G G33A, 0.31; to U25A A47G U48C U78A, 0.05.

C23G U43C G46A U51C U54C A65G U66C: the self-cleavage worked out at 0.02.

On to C23A U49C A65G A75G, for which the self-cleavage stood at 0.04.

Consider C23U U26C A45U U49G U69A, for which the self-cleavage amounted to 0.07. Turning to G24U G33A A77U, the self-cleavage came out at 0.06.

Regarding A21G U49A G53U, the self-cleavage stood at 0.3. Consider A21G U49C U54C U69C, for which the self-cleavage is 0.05. As for G22A U43A U66C, the figure is 0.27. G24A A47G U49A U78A: the self-cleavage was found to be 0.42.

C23A U49C G55U A56C U60C U74A A77U: the self-cleavage is 0.07. As for C23A U25A U60A A64U, the figure is 0.13; as for G24A A35G U41C A57U A64G U72C, 0.05.

G24C U43C A56G U67C: the self-cleavage was 0.2. As for C23U U49A U67A U69C, the figure is 0.06. To G22A U25C A57G belongs 0.16. As for A21G U49C A57G, the figure is 0.12. On to G24A G42A A56G, for which the self-cleavage was 0.29. As for U25A C32G U43C A57G C59A U74A A77C, the figure is 0.03.

G24C G53U U54A: the self-cleavage was 0.29. As for G22A A57G U60C, the figure is 0.12; as for C23U U51A A77G, 0.08; as for C23U U51A A77U, 0.15. To A21G U51A A77G U78C belongs 0.21; to C23A U26C U43C A45G A57U C62U, 0.04; to A21U U25A U31A U58C A77C, 0.06. With A21U U72C C79G, the self-cleavage worked out at 0.68. To A21G U43A A64G U80A belongs 0.56. On to G22A A28G A64G U66A, for which the self-cleavage came to 0.05. To C23A A28G U31C A56G C62A U67C belongs 0.08; to A21G U43C A45U U58A, 0.14. Take A21G U48C U69A: the self-cleavage is 0.12. With C23A C38G U41A U51C, the self-cleavage turned out to be 0.12. Take C23A U54C A57G U60C U66C U67G U78C: the self-cleavage stood at 0.04.

G24A C29G U31C A45G U66C A77G: the self-cleavage turned out to be 0.08.

A21G U43C U49C G52A U54C A75U: the self-cleavage stood at 0.2.

For the variant U25A A45G G46C C68U, the self-cleavage came to 0.34. As for U25A A45C U54C A56U U74A, the figure is 0.37; as for C23U U41C U78C, 0.16. As for G24A U41C A47G, the figure is 0.42; as for A21G U43C U54A U60C U72C, 0.03; as for U25A A28G U80C, 0.42. Turning to U25A A35G G42C A45U A47C, the self-cleavage stood at 0.15. As for G22U U26C U72A C79A, the figure is 0.05. To C23U A28G U54A A57G belongs 0.06; to A21G U69C U76C, 0.39; to U25A C34G A35G A47G U49A A75U, 0.1. As for C23A C34A U41C G42U U60C, the figure is 0.07.

For the variant G24A A45U U58A A77G, the self-cleavage was found to be 0.09. To C23A A64G U67A belongs 0.28; to C23U G33A U41A A47G U60G A64U, 0.08; to C23A U69A U72C, 0.05. For the variant U25A A45G U66C U76A A77U, the self-cleavage was 0.06.

Take U25A G30A A57G: the self-cleavage is 0.48. To A21U C37A U60C A64G belongs 0.06; to G22U A45U A47U A56G, 0.08; to C23G C50A A56U, 0.09. To C23U U25C G52C belongs 0.21. On to U25A U43C G61A, for which the self-cleavage is 0.08. As for G22C U48C A56G, the figure is 0.09. Consider C23U A28G U67A U80C, for which the self-cleavage came out at 0.1. As for A21U A28G U60C U66A, the figure is 0.12; as for C23G U26A G52A, 0.09; as for C23U C39A U41C U49G U54C U60C, 0.07. Regarding C23G U31C U67C A77G, the self-cleavage stood at 0.11. To C23U U43A C50A belongs 0.14; to G24A C34G G55A, 0.27; to A21U U31C U51C U76A, 0.14. With C23A A28G U49C A57U, the self-cleavage was 0.02.

A21U A35G C38U U49C U54C C62U: the self-cleavage is 0.08. As to C23G C39A U80C, the self-cleavage worked out at 0.08.

On to A21U G42A U43C U54A A57G, for which the self-cleavage came to 0.55. To G22A U67C U72A A77G belongs 0.08; to C23U U25A U60C U74C, 0.04. To A21U A35G A57U U58C U72C belongs 0.27; to A21G U41G U51C U60C C71A, 0.86. To G22A U26A A28C belongs 0.14.

Take C23U A35G U76C: the self-cleavage was determined as 0.97. To U25A U26G A28G A35U belongs 0.2.

Consider U25A U26C A28G U43A U58C U60A, for which the self-cleavage was found to be 0.17. To C23G C34G G42A A57G U72C belongs 0.04; to G22A A35G U74A, 0.9.

Take A21U U25C U43A U72A: the self-cleavage was determined as 0.13. Regarding G22A U25C U66C, the self-cleavage came to 0.07. As for A21U G61A A64G, the figure is 0.09; as for G24U G30U U60C, 0.1; as for G24C G73U U78C, 0.21. To G24A A77G U78C belongs 0.13; to C23U A35U U41C U67A, 0.09. In the case of U25A U43A U72G, the self-cleavage is 0.11. As for G24A U74G C79A, the figure is 0.3; as for C23G A35G C38A C39G U76C A77C, 0.04. To U25A A28U U41C U66C belongs 0.2; to G24A C27A A65G U69C U72C, 0.05. Take U25A C29A U43C U76A U78A: the self-cleavage turned out to be 0.03. As for C23U U26C U43A U69G, the figure is 0.03; as for A21G U49C A57G U60C A65C, 0.08; as for C23A U41C U67A U69C U72C, 0. To U25A U26A U43C U67A U80C belongs 0.1; to G24A A45G U54C A64U U72G, 0.07. Take U25A U31C U49C A56G A65U: the self-cleavage stood at 0.06. As for U25A A45C U69A, the figure is 0.11; as for G24U U41A U49A U66C, 0.22. To G24A U49C U80A belongs 0.05; to A21G U72C A77U, 0.82; to G24U U43C U54A, 0.2. As for C23G C59G U69A U72C, the figure is 0.07. Take G24A A28G U41C A45G U67A A75G: the self-cleavage is 0.05. On to C23U U26A A47G A57G A64G U72C U80C, for which the self-cleavage is 0.04. To A21U U69A U80C belongs 0.17; to A21U A45G U48C, 0.04.

As to U25A U41G U51C G70A, the self-cleavage is 0.22. G24U A28G C38G A47U: the self-cleavage is 0.13. To C23U U49C U69C belongs 0.1. As for C23A U26C U31C U48C, the figure is 0.11; as for G24A U26C A35G, 0.4; as for C23U C50G U69A, 0.06. As for G22U U26C U31G U54C A56G U69A U76C, the figure is 0.04; as for C23U C44U A57G, 0.07; as for A21G U60C G61A, 0.2.

As for G24A C40U A47G A64G U72C, the self-cleavage was 0.07.

In the case of U25A U31C U41A U78C, the self-cleavage is 0.06. Consider G24C G61A U67C C81U, for which the self-cleavage turned out to be 0.12. To A21U C37A G53A U60C belongs 0.13.

For the variant U25A U31A A56U U74G, the self-cleavage was 0.12.

As for G24C U41A U58C U80C, the self-cleavage worked out at 0.11. To A21U A35U A45U U66C U80G belongs 0.07. With G24A U25C U41A U60A A64G U74G, the self-cleavage came out at 0.12. To G24A A45G A65G belongs 0.51; to A21G U58C A65G U69C, 0.13. As for A21U U51C U66C, the figure is 0.45; as for C23U U31C G42A U49C U51A U80C, 0.08; as for A21U U54A G70A, 0.44.
